Experimental findings from PubChem BioAssay (NCI) are described below.

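Exposure lasted 48 hours, with cells grown in 96-well plates and compounds tested at five concentrations. GI50 is the concentration that inhibits growth by half. At the TGI there is no net growth.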

This assay concerns NCI-H322M lung. The experiment in a line: NCI-60 cell line screen, 48 h.
Consider `N#Cc1c(NC(=O)c2ccc(C(F)(F)F)cc2)sc2c1CCC(O)=C2`, for which the GI50 was 6.49 µM and the TGI was 32.5 µM.

As for `CN1CCN(CCS(=O)(=O)Nc2cc(-c3ccc4ncnc(Nc5ccc(F)c(Cl)c5)c4c3)cnc2Cl)CC1`, the GI50 is 1.57 µM and the TGI came to 5.38 µM.

As to `Cc1noc2c(Cc3ccccc3)nn(CC(=O)N/N=C/c3ccc(Br)cc3)c(=O)c12`, the GI50 is 17.8 µM and the TGI is above 100 µM.

`O=C(Nc1ccc(OCc2ccccc2)cc1)Nc1ccc(Cl)c(C(F)(F)F)c1`: the GI50 was 1.92 µM and the TGI was determined as 18.8 µM.
